In PubChem BioAssay AID624296 (National Center for Advancing Translational Sciences (NCATS), 2012):
The campaign covered roughly 350,000 compounds. About 9,900 (2.8%) were called active. Inconclusive means that the source gave no clear call. Such entries were picked first, then a sample of the others. The call rests on the fitted dose curve; in most records, active means well fitted activation curve with a large enough effect; inconclusive means small, poorly fitted or top-dose-only effect; inactive means no such curve, though single readings can be large or run the other way. Potencies of inconclusive entries are left out as doubtful fits.
Potency means the concentration at half of the fitted maximal effect; tags describe the fitted curve by direction and shape.

Assay: A quantitative high throughput screen for small molecules that induce DNA re-replication in MCF 10a normal breast cells. Further: nearly all actives have a fitted effect of over 50% in size.
Conditions: MCF 10A DNA re-replication, Hoechst nuclear intensity, 48 h; series mostly up to 46.1 µM
In the case of `Cc1nc(-c2ccc(S(=O)(=O)N3CCCN(CCc4ccccc4)CC3)s2)cs1`, the Potency is reported as inconclusive [activator, single point]. In the case of `CN(Cc1c(O)ccc2c1oc(=O)c1ccccc12)C1CCCCC1`, the Potency is reported as inconclusive [activator, partial curve, poor fit]. With `COc1cc(OC)c(C(=O)Nc2ccccc2-c2ccccc2)cc1OC` the Potency was active: 18.4 µM. With `Cc1ccc2cc3cc(C(=O)NCCCN4CCCC4)oc3nc2c1` the Potency was inconclusive [activator, single point]. With `CSc1nc(-c2ccccc2)nc(C(C)C)n1` the Potency was “inactive”. With `COc1ccc(CNC(=O)C(c2ccco2)N(Cc2cccs2)C(=O)Cc2cccs2)cc1` (stereo not drawn) the Potency was inconclusive [activator, partial curve]. In the case of `CN(CCN1CCOCC1)C(=O)c1cc(COc2ccc(F)c(F)c2)on1`, the Potency is reported as “inactive”. With `O=C(NCCCCc1ccccc1)NC[C@@H]1CC[C@@H](Cc2ccc(-c3ccccc3)cc2)O1` the Potency was inconclusive [activator, single point]. For `CCn1c(=O)c2cc(C(=O)N(C)c3ccc(OC)cc3OC)sc2c2ccccc21`, the Potency was inconclusive [activator, single point]. In the case of `O=C1CN(Cc2nc3cc(Cl)ccc3c(=O)[nH]2)CCN1`, the Potency is reported as inconclusive [activator, partial curve, poor fit]. For `CCOC(=O)c1cc(-c2ccccc2)sc1NC(=O)C(C)Sc1nnc(C)s1` (stereo not drawn), the Potency was inconclusive [activator, single point]. For `Cc1cc(NC(=O)c2ccccc2)nc2c1c(=O)oc1ccccc12`, the Potency was inconclusive [activator, single point]. For `COc1ccc(/C=C2\SC(=S)N(CCC(=O)Nc3ccc(O)cc3)C2=O)cc1`, the Potency was inconclusive [activator, single point]. For `CC(=O)c1sc2nsc(SCCN3CCCCC3)c2c1N`, the Potency was inconclusive [activator, partial curve, poor fit]. For `CC(CSC(=O)c1ccccc1)C(=O)N1C[C@@H](Sc2ccccc2)C[C@H]1C(=O)O` (stereo partly drawn), the Potency was “inactive”. In the case of `O=C(N/N=C/c1ccc(O)cc1O)/C(=C/c1ccccc1)CCO`, the Potency is reported as active: 18.4 µM. With `Cc1nc2ccc(Cl)cc2c(-c2ccccc2)c1CC(=O)O` the Potency was inconclusive [activator, partial curve, poor fit]. In the case of `Cc1ccc(Nc2nc(-c3sc(C)nc3C)cs2)cc1`, the Potency is reported as inconclusive [activator, full curve, poor fit]. For `CCCCc1ccc(NC(=O)C(=O)NCCN2CCN(C(=O)c3ccc([N+](=O)[O-])cc3)CC2)cc1`, the Potency was “inactive”. In the case of `CC(C)=CCc1c2c(c(O)c3c(=O)c4c(oc13)-c1cc(O)c(O)cc1OC4C=C(C)C)C=CC(C)(C)O2` (stereo not drawn), the Potency is reported as “inactive”. For `Cc1ccc(N2C(N)=C(C#N)C(c3ccsc3)C3=C2CC(C)(C)CC3=O)cc1` (stereo not drawn), the Potency was inconclusive [activator, single point]. For `CCCc1cc(C(=O)Nc2sc(C(C)=O)c(C)c2C(=O)OCC)no1`, the Potency was inconclusive [activator, single point]. For `COc1ccc(/C=C2/Sc3ccc(C(=O)NCCN4CCCCCC4)cc3NC2=O)cc1`, the Potency was inconclusive [activator, partial curve, poor fit]. In the case of `Cn1nnnc1Sc1ncnc2scc(-c3ccccc3Cl)c12`, the Potency is reported as inconclusive [activator, partial curve, poor fit]. For `C=CCn1cc(/C=N/Nc2nc3ccccc3[nH]2)c2ccccc21`, the Potency was inconclusive [activator, single point]. For `Cc1nnc(N/N=C\c2ccc(-c3ccccc3[N+](=O)[O-])o2)n1N`, the Potency was inconclusive [activator, single point]. In the case of `CCN(C(=O)CSc1nncn1-c1ccccc1)c1c(N)n(Cc2ccccc2)c(=O)[nH]c1=O`, the Potency is reported as inconclusive [activator, partial curve, poor fit]. With `O=c1[nH]cc(COCC(F)CCl)c(=O)[nH]1` (stereo not drawn) the Potency was “inactive”. In the case of `Cc1cc(C)cc(NC(=O)Nc2ccc3c(c2)N(C)C(=O)CS3)c1`, the Potency is reported as “inactive”. In the case of `CCn1cc(C(=O)NCCCN(CC(C)C)CC(C)C)c(=O)c2cc(S(=O)(=O)N(C)C3CCCCC3)ccc21`, the Potency is reported as inconclusive [activator, single point]. With `CC1(C(=O)O)Oc2cccnc2NC1=O` (stereo not drawn) the Potency was “inactive”. For `CC1(NC(=O)c2cccc(S(=O)(=O)N3CCN(c4ccc(F)cc4)CC3)c2)CCS(=O)(=O)C1` (stereo not drawn), the Potency was “inactive”. With `COc1ccc(NC(=O)N(C)C[C@H]2Oc3c(NC(=O)Nc4ccc(C(F)(F)F)cc4)cccc3C(=O)N([C@H](C)CO)C[C@@H]2C)cc1` the Potency was inconclusive [activator, single point]. In the case of `CN1CCN(C(=O)c2ccc(N(Cc3ccc(Cl)cc3)S(C)(=O)=O)cc2)CC1`, the Potency is reported as active: 5.8 µM. In the case of `CCN(CC)C(=O)CSC1=Nc2ccccc2C2=NC(c3ccccc3)C(=O)N12` (stereo not drawn), the Potency is reported as “inactive”. For `O=S(=O)(c1ccccc1F)N1CCC(Oc2ccc(-n3cnnn3)cc2)CC1`, the Potency was “inactive”. In the case of `Cc1nc(NCc2ccco2)nc2c1C(=O)CC(C)C2` (stereo not drawn), the Potency is reported as inconclusive [activator, partial curve, poor fit]. In the case of `COc1cccc(OC)c1C(=O)NC(C)C12CC3CC(CC(C3)C1)C2` (stereo not drawn), the Potency is reported as “inactive”. In the case of `COCC(C)NC(=O)c1ccc(-n2nc(C(F)(F)F)cc2-c2cccs2)cc1` (stereo not drawn), the Potency is reported as inconclusive [activator, partial curve, poor fit]. With `CN1CCN(C(=O)c2cc(COc3ccc(F)cc3Cl)on2)CC1c1ccccc1` (stereo not drawn) the Potency was active: 20.6 µM. For `COc1cccc(NC(=O)CN(C)C(=O)CSc2ccc3c(c2)OCCO3)c1`, the Potency was “inactive”. In the case of `CCCC(=O)N=C1SC2CS(=O)(=O)CC2N1c1ccc(-c2nc3ccc(C)cc3s2)cc1` (stereo not drawn), the Potency is reported as inconclusive [activator, single point]. In the case of `CCC1=C(OC(=O)N(CC)CC)N2C(=O)OC(=NCCc3c[nH]c4ccccc34)[C@]2(Cc2ccccc2)[C@H]2C1=CC[C@H]1C(=O)NC(=O)[C@H]12`, the Potency is reported as inconclusive [activator, single point]. With `Cc1cc([N+](=O)[O-])c2ccccc2c1NS(=O)(=O)c1ccccc1` the Potency was inconclusive [activator, single point]. For `CC(=O)OC(C(=O)Nc1nccs1)c1ccccc1` (stereo not drawn), the Potency was inconclusive [activator, single point]. With `CN(C)C(CNC(=O)c1cccc(S(=O)(=O)Nc2ccccc2Cl)c1)c1ccco1` (stereo not drawn) the Potency was inconclusive [activator, single point]. In the case of `O=C1CC(N2CCN(C/C=C/c3ccccc3)CC2)C(=O)N1CCc1ccccc1` (stereo not drawn), the Potency is reported as inconclusive [activator, single point]. For `O=C(OC1CCOC1=O)c1ccc(CO)cc1` (stereo not drawn), the Potency was “inactive”. With `CCOC(=O)C1(Cc2ccc(OC)cc2)CCN(C(=O)CCc2cccnc2)CC1` the Potency was “inactive”. In the case of `CCn1c(SCC(=O)Nc2ccc(OC)cc2)nc2nc3c(cc2c1=O)COC(C)(C)C3`, the Potency is reported as “inactive”. With `Cc1cc(N/N=C\c2ccccc2)nc(-c2ccccc2O)n1` the Potency was inconclusive [activator, single point]. For `O=c1oc(-c2ccccc2NS(=O)(=O)c2ccc3ccccc3c2)nc2ccccc12`, the Potency was inconclusive [activator, single point]. In the case of `O=S(=O)(Nc1ccccc1)c1ccc(-c2cnc(C3CC3)o2)cc1`, the Potency is reported as inconclusive [activator, single point]. In the case of `COc1ccc(-c2nc(-c3ccccn3)no2)cc1`, the Potency is reported as “inactive”. In the case of `COC(=O)[C@@]1(Cc2ccccc2)[C@H]2c3cc(C(=O)N4CCCC4)n(Cc4ccsc4Br)c3C[C@H]2CN1C(=O)c1ccccc1`, the Potency is reported as inconclusive [activator, single point]. In the case of `CN(C)/C=N/C(=S)Nc1ccc(Cl)cc1Cl`, the Potency is reported as inconclusive [activator, partial curve, poor fit]. With `COc1cc(SC)ccc1C(=O)Nc1c(Cl)cncc1Cl` the Potency was “inactive”. With `O=c1[nH]c(CN2CCN(S(=O)(=O)c3ccccc3C(F)(F)F)CC2)nc2sc3c(c12)CCCC3` the Potency was “inactive”. For `CCOC(=O)c1cccc(OC(=O)CCNC(=O)c2ccc(Cl)cc2)c1`, the Potency was “inactive”. For `COc1ccc(C2=NN(C(=O)c3cccs3)C(O)(C(F)(F)F)C2)cc1` (stereo not drawn), the Potency was “inactive”. With `CCCCCCSc1nc(O)c(C2OC(=O)c3c2ccc(OC)c3OC)c(=O)n1-c1ccccc1` (stereo not drawn) the Potency was inconclusive [activator, single point]. For `O=S(=O)(c1cccc(Cl)c1Cl)N1CCN(C(=S)NCCCN2CCOCC2)CC1`, the Potency was inconclusive [activator, partial curve]. In the case of `COc1cccc(CN2CCCCC2C(=O)O)c1` (stereo not drawn), the Potency is reported as “inactive”. For `COc1ccc(-c2nn(-c3ccccc3)cc2CO)cc1OC`, the Potency was inconclusive [activator, partial curve, poor fit]. In the case of `O=C(Cn1cnc2sc(-c3ccccc3)cc2c1=O)NCCc1ccccc1`, the Potency is reported as inconclusive [activator, single point]. In the case of `CC(=O)NC1C(=O)N(CCN2CCOCC2)c2ccc(Br)cc21` (stereo not drawn), the Potency is reported as “inactive”. In the case of `O=C(NCCCN1CCOCC1)c1ccc2c(=O)n(-c3ccc(F)c(Cl)c3)c(=S)[nH]c2c1`, the Potency is reported as inconclusive [activator, partial curve, poor fit]. In the case of `COc1cccc(C(c2cccc(OC)c2)c2ccccc2C(=O)O)c1`, the Potency is reported as “inactive”.
